Assay results: PMC11995724, “Antibiotic target discovery by integrated phenotypic and activity-based profiling of electrophilic fragments” (Cell chemical biology, 2025)
Screen size: about 3,200 compounds; about 110 (3.4%) showed an effect of 50% or more. This is one part of the list.

Each compound was assayed on T1, V. cholerae SAD30. Details: relative growth, OD600, LB; 25 µM; inhibitor.
T1 construct: SAD30
Design: species or system S. aureus MSSA476 (TSB) or V. cholerae SAD30 (LB); 384-well bacterial growth screen at 25 uM, OD600 relative to DMSO control
For `Cc1ccc(NC(=O)C(C#N)=Cc2ccc(C(C)(C)C)cc2)cc1C` [9-E04, 3-(4-tert-butylphenyl)-2-cyano-N-(3,4-dimethylphenyl)prop-2-enamide], the “% of control remaining” value was 90.2107%. For `N#CC(=Cc1ccc(OC(F)F)c(Cl)c1)C(N)=O` [9-L12, 3-[3-chloro-4-(difluoromethoxy)phenyl]-2-cyanoprop-2-enamide], the “% of control remaining” value was 84.6363%. `COc1ccc2ccccc2c1-c1cc(CNC(=O)C(C)Cl)on1` (stereo not drawn) [7-E08, 2-chloro-N-{[3-(2-methoxynaphthalen-1-yl)-1,2-oxazol-5-yl]methyl}propanamide] was tested, and the “% of control remaining” value was 61.8536%. With `C=CC(=O)N1CCN(c2nc3ccccc3o2)CC1` [1-K05, 1-[4-(1,3-benzoxazol-2-yl)piperazin-1-yl]prop-2-en-1-one] the “% of control remaining” value was 92.6756%. `CC(Cl)C(=O)NCCc1ccccc1` (stereo not drawn) [4-K14, 2-chloro-N-(2-phenylethyl)propanamide] was tested, and the “% of control remaining” value was 95.0615%. With `C=CC(=O)NCCn1nnc2ccccc21` [2-N11, N-[2-(1H-1,2,3-benzotriazol-1-yl)ethyl]prop-2-enamide] the “% of control remaining” value was 85.8728%. `C=CC(=O)N1CCC(C(=O)N(CC)Cc2occc2C)CC1` [2-L08, N-ethyl-N-[(3-methylfuran-2-yl)methyl]-1-(prop-2-enoyl)piperidine-4-carboxamide] was tested, and the “% of control remaining” value was 90.3503%. For `CC(Cl)C(=O)NCc1cccc(N2C(=O)NC3(CCCC3)C2=O)c1` (stereo not drawn) [7-O18, 2-chloro-N-[(3-{2,4-dioxo-1,3-diazaspiro[4.4]nonan-3-yl}phenyl)methyl]propanamide], the “% of control remaining” value was 81.6785%. For `CC(=O)Nc1ccc(C=C(C#N)C(=O)Nc2ccccc2Cl)cc1` [8-M11, N-(2-chlorophenyl)-2-cyano-3-(4-acetamidophenyl)prop-2-enamide], the “% of control remaining” value was 71.7199%. `Cl.O=C(CCl)NC1CCN(Cc2ccccc2)CC1` [5-E19, N-(1-benzylpiperidin-4-yl)-2-chloroacetamide hydrochloride] was tested, and the “% of control remaining” value was 100.368%. `CC(Cl)C(=O)NCCc1cccs1` (stereo not drawn) [4-D14, 2-chloro-N-[2-(thiophen-2-yl)ethyl]propanamide] was tested, and the “% of control remaining” value was 102.308%. For `C=CC(=O)NCc1ccc(C(=O)N2CCC[C@@H]2C(N)=O)cc1` [3-L22, (2R)-1-{4-[(prop-2-enamido)methyl]benzoyl}pyrrolidine-2-carboxamide], the “% of control remaining” value was 108.322%. `CC(Cl)C(=O)NC(C)c1nnc(-c2cccc(F)c2)s1` (stereo not drawn) [5-N15, 2-chloro-N-{1-[5-(3-fluorophenyl)-1,3,4-thiadiazol-2-yl]ethyl}propanamide] was tested, and the “% of control remaining” value was 95.6604%. In the case of `C=CC(=O)NCc1cc(C2CC2)nn1C` [1-L10, N-[(3-cyclopropyl-1-methyl-1H-pyrazol-5-yl)methyl]prop-2-enamide], the “% of control remaining” value is reported as 107.458%. With `CCN1C(=O)CSC1=C(C#N)C(N)=O` [8-M09, 2-cyano-2-(3-ethyl-4-oxo-1,3-thiazolidin-2-ylidene)acetamide] the “% of control remaining” value was 74.0313%. For `CCCn1c(C)cc(C=C(C#N)C(=O)Nc2cccc(F)c2)c1C` [8-L19, 2-cyano-3-(2,5-dimethyl-1-propyl-1H-pyrrol-3-yl)-N-(3-fluorophenyl)prop-2-enamide], the “% of control remaining” value was 76.4786%. With `CN1c2ccccc2C(NC(=O)CCl)CS1(=O)=O` (stereo not drawn) [7-L04, 2-chloro-N-(1-methyl-2,2-dioxo-3,4-dihydro-1H-2lambda6,1-benzothiazin-4-yl)acetamide] the “% of control remaining” value was 88.9476%. `N#CC(=Cc1cccc(Cl)c1Cl)C(=O)NCc1ccccc1` [8-L04, N-benzyl-2-cyano-3-(2,3-dichlorophenyl)prop-2-enamide] was tested, and the “% of control remaining” value was 73.0795%. With `Cc1cc(C(=O)C(C)Cl)c(C)n1-c1ccc(OC(F)F)cc1` (stereo not drawn) [10-E10, 2-chloro-1-{1-[4-(difluoromethoxy)phenyl]-2,5-dimethyl-1H-pyrrol-3-yl}propan-1-one] the “% of control remaining” value was 97.7206%. In the case of `C=CC(=O)Nc1ccc2nc(O)n(C3CC3)c2c1` [2-K16, N-(1-cyclopropyl-2-hydroxy-1H-1,3-benzodiazol-6-yl)prop-2-enamide], the “% of control remaining” value is reported as 86.7992%. For `C=CC(=O)NC(C)c1cc2cnccc2o1` (stereo not drawn) [1-B08, N-(1-{furo[3,2-c]pyridin-2-yl}ethyl)prop-2-enamide], the “% of control remaining” value was 100.343%. `CC(NC(=O)CCl)c1cn(C)c2cc(Cl)ccc12` (stereo not drawn) [5-E11, 2-chloro-N-[1-(6-chloro-1-methyl-1H-indol-3-yl)ethyl]acetamide] was tested, and the “% of control remaining” value was 94.8198%. `CC(Cl)C(=O)N(C)C1CCS(=O)(=O)CC1` (stereo not drawn) [6-J21, 2-chloro-N-(1,1-dioxo-1lambda6-thian-4-yl)-N-methylpropanamide] was tested, and the “% of control remaining” value was 101.469%. In the case of `C=CC(=O)N1CCn2c(nnc2C(F)(F)F)C1` [1-D18, 1-[3-(trifluoromethyl)-5H,6H,7H,8H-[1,2,4]triazolo[4,3-a]pyrazin-7-yl]prop-2-en-1-one], the “% of control remaining” value is reported as 101.325%. For `N#CC(=Cc1c[nH]nc1-c1ccccc1F)C(=O)Nc1ccccc1F` [8-H06, 2-cyano-N-(2-fluorophenyl)-3-[3-(2-fluorophenyl)-1H-pyrazol-4-yl]prop-2-enamide], the “% of control remaining” value was 65.8736%. For `CC(Cl)C(=O)NCCc1cnc2c(Cl)cnn2c1` (stereo not drawn) [7-M18, 2-chloro-N-(2-{3-chloropyrazolo[1,5-a]pyrimidin-6-yl}ethyl)propanamide], the “% of control remaining” value was 78.5065%. For `C=CC(=O)NCc1ccc(OC)cc1` [1-K10, N-[(4-methoxyphenyl)methyl]prop-2-enamide], the “% of control remaining” value was 79.2227%. `CNC(=O)C(C#N)=Cc1cccc(C)c1C` [9-D14, 2-cyano-3-(2,3-dimethylphenyl)-N-methylprop-2-enamide] was tested, and the “% of control remaining” value was 82.189%. For `CC(Cl)C(=O)N1CCC(C(=O)c2cccs2)CC1` (stereo not drawn) [7-L13, 2-chloro-1-[4-(thiophene-2-carbonyl)piperidin-1-yl]propan-1-one], the “% of control remaining” value was 77.9779%. For `C=CC(=O)NC(C)(C)c1ccc(S(N)(=O)=O)cc1F` [2-P17, N-[2-(2-fluoro-4-sulfamoylphenyl)propan-2-yl]prop-2-enamide], the “% of control remaining” value was 94.3646%. With `O=C(CCl)NC(c1ccccc1)c1ccccc1` [6-M12, 2-chloro-N-(diphenylmethyl)acetamide] the “% of control remaining” value was 93.4307%. For `C=CC(=O)N1Cc2c(C(=O)O)cnn2CC1C` (stereo not drawn) [3-N18, 6-methyl-5-(prop-2-enoyl)-4H,5H,6H,7H-pyrazolo[1,5-a]pyrazine-3-carboxylic acid], the “% of control remaining” value was 99.5001%. With `CC(Cl)C(=O)N1CCN(C(=O)c2ccc3ccccc3c2)CC1` (stereo not drawn) [7-E07, 2-chloro-1-[4-(naphthalene-2-carbonyl)piperazin-1-yl]propan-1-one] the “% of control remaining” value was 76.3919%. In the case of `C=CC(=O)Nc1ccc(N2CCN(CC)CC2)cc1` [1-D12, N-[4-(4-ethylpiperazin-1-yl)phenyl]prop-2-enamide], the “% of control remaining” value is reported as 110.402%. In the case of `C=CC(=O)NCC1(C)CCS(=O)(=O)CC1` [1-G16, N-[(4-methyl-1,1-dioxo-1lambda6-thian-4-yl)methyl]prop-2-enamide], the “% of control remaining” value is reported as 91.6293%. `O=C(CCl)Nc1nc(-c2cc(F)ccc2F)cs1` [4-L22, 2-chloro-N-[4-(2,5-difluorophenyl)-1,3-thiazol-2-yl]acetamide] was tested, and the “% of control remaining” value was 111.624%. `Cc1cc(C(=O)CCl)co1` [10-A13, 2-chloro-1-(5-methylfuran-3-yl)ethan-1-one] was tested, and the “% of control remaining” value was 114.397%. With `COc1ccc(C=C(C#N)C(=O)Nc2nccs2)cc1O` [8-G19, 2-cyano-3-(3-hydroxy-4-methoxyphenyl)-N-(1,3-thiazol-2-yl)prop-2-enamide] the “% of control remaining” value was 74.4392%. For `C=CC(=O)NCC1CCCC1N1CCCS1(=O)=O` (stereo not drawn) [3-L13, N-{[2-(1,1-dioxo-1lambda6,2-thiazolidin-2-yl)cyclopentyl]methyl}prop-2-enamide], the “% of control remaining” value was 89.796%. With `CCOc1cc2c(cc1C=C(C#N)C(N)=O)OC(C)C2` (stereo not drawn) [9-D04, 2-cyano-3-(5-ethoxy-2-methyl-2,3-dihydro-1-benzofuran-6-yl)prop-2-enamide] the “% of control remaining” value was 94.9694%. With `CC(Cl)C(=O)N1CCOCC1c1cccn1C` (stereo not drawn) [7-A09, 2-chloro-1-[3-(1-methyl-1H-pyrrol-2-yl)morpholin-4-yl]propan-1-one] the “% of control remaining” value was 91.9874%. In the case of `N#CC(=Cc1ccc(O)cc1)C(=O)NCc1ccc(Cl)cc1` [8-B16, N-[(4-chlorophenyl)methyl]-2-cyano-3-(4-hydroxyphenyl)prop-2-enamide], the “% of control remaining” value is reported as 74.5751%. With `CCc1ccccc1NC(=O)CN(C)C(=O)CCl` [6-L06, 2-chloro-N-{[(2-ethylphenyl)carbamoyl]methyl}-N-methylacetamide] the “% of control remaining” value was 89.1838%. `CC(NC(=O)CCl)C(=O)N1c2ccccc2CC1C` (stereo not drawn) [7-N16, 2-chloro-N-[1-(2-methyl-2,3-dihydro-1H-indol-1-yl)-1-oxopropan-2-yl]acetamide] was tested, and the “% of control remaining” value was 84.454%. In the case of `CC(Cl)C(=O)N1CCN(Cc2ccc(C(F)(F)F)cc2)C(=O)C1` (stereo not drawn) [6-N19, 4-(2-chloropropanoyl)-1-{[4-(trifluoromethyl)phenyl]methyl}piperazin-2-one], the “% of control remaining” value is reported as 89.6388%.
